This is an account of results in patent US20240384006A1 (Amgen, published 2024).

The target in assay [1] is T1, human CD20 (human, UniProt P11836 1-297).
T1 sequence (looked up): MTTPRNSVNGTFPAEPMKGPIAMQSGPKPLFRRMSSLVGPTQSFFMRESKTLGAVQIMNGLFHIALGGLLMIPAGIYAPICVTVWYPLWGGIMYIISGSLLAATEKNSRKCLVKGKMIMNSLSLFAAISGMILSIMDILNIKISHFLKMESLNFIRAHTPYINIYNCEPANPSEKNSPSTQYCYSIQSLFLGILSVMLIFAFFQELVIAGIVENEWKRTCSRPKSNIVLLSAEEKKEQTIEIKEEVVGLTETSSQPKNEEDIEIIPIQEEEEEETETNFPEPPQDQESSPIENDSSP
The assay is described as follows: cell-based or functional assay.

Assay [2] concerns the target T2, human CD22 (human, UniProt P20273 20-847).
T2 sequence (looked up): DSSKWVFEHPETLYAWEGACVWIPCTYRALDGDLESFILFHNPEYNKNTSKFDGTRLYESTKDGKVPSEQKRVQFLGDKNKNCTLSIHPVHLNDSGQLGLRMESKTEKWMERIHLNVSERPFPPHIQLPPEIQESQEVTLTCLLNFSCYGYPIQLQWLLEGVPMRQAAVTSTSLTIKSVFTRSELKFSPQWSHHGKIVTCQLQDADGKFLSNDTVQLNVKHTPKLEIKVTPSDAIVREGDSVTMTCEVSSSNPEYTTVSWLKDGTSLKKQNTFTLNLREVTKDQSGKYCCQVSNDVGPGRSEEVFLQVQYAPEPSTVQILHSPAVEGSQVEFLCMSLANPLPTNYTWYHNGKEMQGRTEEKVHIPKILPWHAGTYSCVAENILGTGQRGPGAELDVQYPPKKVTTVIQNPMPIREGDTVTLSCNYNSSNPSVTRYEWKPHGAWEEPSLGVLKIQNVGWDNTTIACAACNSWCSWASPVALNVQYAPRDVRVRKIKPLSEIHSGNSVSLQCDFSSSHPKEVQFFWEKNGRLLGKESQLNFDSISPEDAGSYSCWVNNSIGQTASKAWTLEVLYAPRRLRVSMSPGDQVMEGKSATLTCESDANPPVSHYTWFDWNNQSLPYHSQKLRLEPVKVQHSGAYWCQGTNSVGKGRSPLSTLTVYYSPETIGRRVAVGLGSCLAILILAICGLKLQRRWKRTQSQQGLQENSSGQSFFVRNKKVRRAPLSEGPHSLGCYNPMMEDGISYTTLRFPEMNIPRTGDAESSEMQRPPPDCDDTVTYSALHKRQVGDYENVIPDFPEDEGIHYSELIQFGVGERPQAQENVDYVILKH
The assay is described as follows: cell-based or functional assay.

The target of assay [3] is T3, cyno CD20 (cyno, UniProt M4ZHZ6 1-297).
T3 construct: whole, on cells; also called cy CD20
T3 sequence: T1 sequence (looked up) with S25P, F31L, T51A, A157V, K217R, N226S, I227V, T239V
The assay is described as follows: cyno Kd divided by human Kd, cell-based affinity on CHO cells.

The target in assay [4] is T4, cyno CD22 (cyno).
T4 construct: whole, on cells; also called cy CD22
Described as above.

Assay [5] deals with T3, cyno CD20. The assay is described as follows: flow cytometry on CHO cells expressing cyno CD20, one site-specific binding fit, mean of three. (Flow cytometry measures light scatter and fluorescence of single cells or particles in a stream.)
Assay [6] concerns the target T4, cyno CD22. The assay is described as follows: flow cytometry on CHO cells expressing cyno CD22, one site-specific binding fit, mean of three.
Assay [7] has as its target T1, human CD20. The assay is described as follows: flow cytometry on CHO cells expressing human CD20, one site-specific binding fit, mean of three.
Assay [8] deals with T2, human CD22. Nature of the assay: flow cytometry on CHO cells expressing human CD22, one site-specific binding fit, mean of three.

Residue numbers refer to the chain shown, from its start. Names and notes keep the numbering of the source.

B1: CD20 82-D2 CC × CD22 53-G9 CC × I2E × scFc (Z1W) (bispecific antibody)
chain: EVQLLESGGGLVQPGGSLRLSCAASGFTFSGHAMTWVRQAPGKCLEWLSTIYGSGGYTYYAGSVKGRFTISRDNSKNTLYLQMNSLRAEDTAVYYCAKVGGYDWYFDLWGRGTLVTVSSGGGGSGGGGSGGGGSSYELTQPPSVSVALGQTARITCGGHNIGSKNVHWYQQKPGQAPVLVIYRDTNRPSGIPERFSGSNSGNTATLTISRAQAGDEADYYCQLWDSTTVVFGCGTKLTVLSGGGGSQVQLVQSGAEVKKPGESLKISCKGSGYSFTSYGISWVRQAPGQCLEWMGWISAYNGNTIYAQKLQGRVTMTTDTSTSTAYMELRRLRSDDTAVYYCARDPGVTGDDYWGQGTLVTVSSGGGGSGGGGSGGGGSEIVLTQSPATLSVSPGERATLSCRASLSVSSNLAWYQQKPGQAPRLLIYGASTRATGIPARFSGSGSGTEFTLTISSLQSEDFAVYFCQQYHSWPALTFGCGTKVEIKSGGGGSEVQLVESGGGLVQPGGSLKLSCAASGFTFNKYAINWVRQAPGKGLEWVARIRSKYNNYATYYADAVKDRFTISRDDSKNTVYLQMNNLKTEDTAVYYCARAGNFGSSYISYWAYWGQGTLVTVSSGGGGSGGGGSGGGGSQTVVTQEPSLTVSPGGTVTIT[in this place about 80 residues]FGSGTKLTVLGGGG[in this place human IgG1 Fc with R292C N297G V302C (EU numbers)]GGGGSGGGGSGGGGSGGGGSGGGGSGGGGS[in this place human IgG1 Fc with R292C N297G V302C (EU numbers)]
notes: Single chain: anti-CD20 scFv, anti-CD22 scFv, anti-CD3 scFv (I2E), scFc
The Kd is the concentration at which binding is half-saturated. Read a low Kd as tighter binding. For B1, in the assay with human CD20 [1], the “EC50, 48-hour FACS based cytotoxicity assay, Oci-Ly 1 CD22 k.o. #A1” value (“EC50 … Oci-Ly 1 CD22 k.o. #A1” for short) turned out to be 21.8 pM. Besides, the “EC50, 48-hour FACS based cytotoxicity assay, Oci-Ly 1 CD20 k.o. #A5” value (shortened to “EC50 … Oci-Ly 1 CD20 k.o. #A5”) with human CD22 [2] came to 5.23 pM. Further, the “Affinity gap Kdcy/Kdhu CD20” value in the assay with cyno CD20 [3] was 0.5. Also, the “Affinity gap Kdcy/Kdhu CD22” value in the assay with cyno CD22 [4] was 1.66. Besides, the dissociation constant (Kd) in the assay with cyno CD20 [5] is 11100 pM; with cyno CD22 [6] it was 580 pM; with human CD20 [7], 22400 pM; in the assay with human CD22 [8], 350 pM.

B2: CD20 82-D2 CC × CD22 43-A8 CC × I2E × scFc (H1C) (bispecific antibody)
chain: EVQLLESGGGLVQPGGSLRLSCAASGFTFSGHAMTWVRQAPGKCLEWLSTIYGSGGYTYYAGSVKGRFTISRDNSKNTLYLQMNSLRAEDTAVYYCAKVGGYDWYFDLWGRGTLVTVSSGGGGSGGGGSGGGGSSYELTQPPSVSVALGQTARITCGGHNIGSKNVHWYQQKPGQAPVLVIYRDTNRPSGIPERFSGSNSGNTATLTISRAQAGDEADYYCQLWDSTTVVFGCGTKLTVLSGGGGSQVQLVQSGGEVKKPGASVKVSCKASGYTFTSYGISWVRQAPGQCLEWMGWISAYTGETLYAQKLQGRVTMTRDTSTSTAYMELRSLRSDDTAVYYCARDPDYYGSGSYSDYWGQGTLVTVSSGGGGSGGGGSGGGGSEIVLTQSPATLSVSPGERATLSCRASQSVSSNLAWYQQKPGQAPRLLIYGASSRATGIPARFSGSGSGTEFTLTISSLQSEDFAVYYCQQYHSWPLLTFGCGTKVEIKSGGGGSEVQLVESGGGLVQPGGSLKLSCAASGFTFNKYAINWVRQAPGKGLEWVARIRSKYNNYATYYADAVKDRFTISRDDSKNTVYLQMNNLKTEDTAVYYCARAGNFGSSYISYWAYWGQGTLVTVSSGGGGSGGGGSGGGGSQTVVTQEPSLTVSPGGTVTIT[in this place about 80 residues]FGSGTKLTVLGGGG[in this place human IgG1 Fc with R292C N297G V302C (EU numbers)]GGGGSGGGGSGGGGSGGGGSGGGGSGGGGS[in this place human IgG1 Fc with R292C N297G V302C (EU numbers)]
notes: as for B1
For B2, the “EC50 … Oci-Ly 1 CD22 k.o. #A1” value with human CD20 [1] turned out to be 13.8 pM. Moreover, the “EC50 … Oci-Ly 1 CD20 k.o. #A5” value in the assay with human CD22 [2] was 14.1 pM. For the same molecule, the “Affinity gap Kdcy/Kdhu CD20” value in the assay with cyno CD20 [3] was found to be 1.19. Further, the “Affinity gap Kdcy/Kdhu CD22” value in the assay with cyno CD22 [4] was 5.87. In addition, the dissociation constant Kd with cyno CD20 [5] turned out to be 15800 pM; with cyno CD22 [6] it was 1820 pM; with human CD20 [7], 13300 pM; in the assay with human CD22 [8] it was 310 pM.

B3: CD20 82-A3 CC × CD22 53-G9 CC × I2E × scFc (L4L) (bispecific antibody)
chain: EVQLVESGGGLVQPDRSLRLSCAASGFTFRDYAMHWVRQAPGKCLEWVSGIAWNSDSIGYADSVKGRFTISRDNAKNSLFLQMHSLRPEDTALYFCAKDTLYGSGSPRAFDIWGQGTMVTVSSGGGGSGGGGSGGGGSEIVLTQSPATLSVSPGERATLSCRASQSVNNNLAWYQQKPGQAPRLLIYGASTRATGIPARFSGSGSGTEFTLTISRLEPEDFAVYYCQQSNNWPITFGCGTRLEIKSGGGGSQVQLVQSGAEVKKPGESLKISCKGSGYSFTSYGISWVRQAPGQCLEWMGWISAYNGNTIYAQKLQGRVTMTTDTSTSTAYMELRRLRSDDTAVYYCARDPGVTGDDYWGQGTLVTVSSGGGGSGGGGSGGGGSEIVLTQSPATLSVSPGERATLSCRASLSVSSNLAWYQQKPGQAPRLLIYGASTRATGIPARFSGSGSGTEFTLTISSLQSEDFAVYFCQQYHSWPALTFGCGTKVEIKSGGGGSEVQLVESGGGLVQPGGSLKLSCAASGFTFNKYAINWVRQAPGKGLEWVARIRSKYNNYATYYADAVKDRFTISRDDSKNTVYLQMNNLKTEDTAVYYCARAGNFGSSYISYWAYWGQGTLVTVSSGGGGSGGGGSGGGGSQTVVTQEPSLTVSPGGTVTIT[in this place about 80 residues]FGSGTKLTVLGGGG[in this place human IgG1 Fc with R292C N297G V302C (EU numbers)]GGGGSGGGGSGGGGSGGGGSGGGGSGGGGS[in this place human IgG1 Fc with R292C N297G V302C (EU numbers)]
notes: as for B1
Regarding B3, the “EC50 … Oci-Ly 1 CD22 k.o. #A1” value in the assay with human CD20 [1] stood at 0.03 pM. The “EC50 … Oci-Ly 1 CD20 k.o. #A5” value with human CD22 [2] turned out to be 5.27 pM. Further, the “Affinity gap Kdcy/Kdhu CD20” value with cyno CD20 [3] was 0.5. Moreover, the “Affinity gap Kdcy/Kdhu CD22” value with cyno CD22 [4] turned out to be 9. Also, the dissociation constant (Kd) with cyno CD20 [5] is 1320 pM; in the assay with cyno CD22 [6] it was 1080 pM; in the assay with human CD20 [7] it was 2630 pM; in the assay with human CD22 [8] it was 120 pM.

B4: CD20 82-A3 CC × CD22 97K-A8 CC × I2E × scFc (U2H) (bispecific antibody)
chain: EVQLVESGGGLVQPDRSLRLSCAASGFTFRDYAMHWVRQAPGKCLEWVSGIAWNSDSIGYADSVKGRFTISRDNAKNSLFLQMHSLRPEDTALYFCAKDTLYGSGSPRAFDIWGQGTMVTVSSGGGGSGGGGSGGGGSEIVLTQSPATLSVSPGERATLSCRASQSVNNNLAWYQQKPGQAPRLLIYGASTRATGIPARFSGSGSGTEFTLTISRLEPEDFAVYYCQQSNNWPITFGCGTRLEIKSGGGGSQLQLQESGPGLVKPSETLSLTCFVSGGSISNSDYFWGWIRQPPGKCLEWIGTIYYSGRTYYNPSLKSRVTISVDTSKNQFSLMLSSVTAVDTAVYYCARYQYGSFDYWGQGTLVTVSSGGGGSGGGGSGGGG[in this place about 100 residues]FGCGTKVEIRSGGGGSEVQLVESGGGLVQPGGSLKLSCAASGFTFNKYAINWVRQAPGKGLEWVARIRSKYNNYATYYADAVKDRFTISRDDSKNTVYLQMNNLKTEDTAVYYCARAGNFGSSYISYWAYWGQGTLVTVSSGGGGSGGGGSGGGGSQTVVTQEPSLTVSPGGTVTIT[in this place about 80 residues]FGSGTKLTVLGGGG[in this place human IgG1 Fc with R292C N297G V302C (EU numbers)]GGGGSGGGGSGGGGSGGGGSGGGGSGGGGS[in this place human IgG1 Fc with R292C N297G V302C (EU numbers)]
notes: as for B1
Consider B4, for which, in the assay with human CD20 [1], the “EC50 … Oci-Ly 1 CD22 k.o. #A1” value came to 0.35 pM. Further, the “EC50 … Oci-Ly 1 CD20 k.o. #A5” value with human CD22 [2] is 77.2 pM. Further, the “Affinity gap Kdcy/Kdhu CD20” value with cyno CD20 [3] is 0.92. Besides, the “Affinity gap Kdcy/Kdhu CD22” value in the assay with cyno CD22 [4] was 0.23. The Kd amounted to 1700 pM in the assay with cyno CD20 [5], 2850 pM with cyno CD22 [6], 1840 pM with human CD20 [7] and 12400 pM with human CD22 [8].
